In PubChem BioAssay AID686978 (National Center for Advancing Translational Sciences (NCATS), 2013):
In all, about 420,000 compounds went through this assay and about 64,000 (15%) were called active. Inconclusive results, whose numbers are uncertain, are shown with a selection of clear calls. Calls follow the shape of the dose curve; as a rule, active = well fitted inhibition curve with a large enough effect; inconclusive = small, poorly fitted or top-dose-only effect; inactive = flat fitted curve, though single readings scatter. No potency is given beside an inconclusive call; the fits are too rough.

Experiment: qHTS for Inhibitors of human tyrosyl-DNA phosphodiesterase 1 (TDP1): qHTS in cells in absence of CPT; also: nearly all actives have a fitted effect of over 55% in size
Details: DT40 Tdp1-/- hTDP1 cells, no CPT, ATP luminescence, 48 h; activity change, negative = growth inhibition: at 46.2 µM (top of the series) unless noted
Method in brief: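 Stably hTDP1-transfected Tdp1-null chicken DT40 cells were treated with library compounds minus camptothecin and grown for at least 48 hr at 37 °C, after which cellular ATP was quantified by luminescence.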
% is scaled to controls: 0 for no effect and ±100 for the full control effect; potency is read from the fitted curve at half-maximal effect; tags tell the direction and shape of the fitted curve.

| SMILES | activity change, negative = growth inhibition | Potency |
| --- | --- | --- |
| Cc1oc(-c2cccs2)cc1C(=O)N1CCCC(C)(C(=O)O)C1 (stereo not given) | inactive: -14.9% |  |
| COc1ccc(NC(=O)c2cc(C)cc(C)c2)cc1[N+](=O)[O-] |  | inconclusive [inhibitor, partial curve] |
| O=C(CSCc1ccc(F)cc1)N1CCc2c([nH]c3ccccc23)C1c1ccc(Cl)cc1 (stereo not given) |  | inconclusive [inhibitor, single point] |
| CCOc1ccc(N(CC(=O)NC2CCCCC2)C(=O)CCCC(=O)Nc2ccccn2)cc1 | inactive: -5.92% |  |
| COc1ccc(N(CC2CO2)S(=O)(=O)c2ccccc2)cc1 (stereo not given) |  | inconclusive [inhibitor, partial curve] |
| Cc1cc(N2CCCCC2)nc2ccc(NC(=O)CCC(=O)N3CCN(c4ccccc4)CC3)cc12 |  | active: 20.6 µM |
| CC(=O)c1c(C(C)=O)c(C)n(-c2nc(-c3ccc(Br)cc3)c(C)s2)c1C |  | active: 16.4 µM |
| Cc1ccc2nc(C)cc(OCC(=O)O)c2c1 |  | inconclusive [inhibitor, partial curve] |
| Cc1cc(OC(=O)c2ccccc2F)c([N+](=O)[O-])c(=O)[nH]1 | inactive: 4.38% |  |
| COc1ccc(CC(=O)N2CCc3cc(OC)c(OC)cc3C2C)c(OC)c1 (stereo not given) |  | inconclusive [inhibitor, partial curve] |
| NS(=O)(=O)c1ccc(CNC(=O)/C=C/c2c(F)cccc2Cl)cc1 | inactive: 1.77% |  |
| Cc1cc(C(=O)NCc2ccccc2Cl)n(-c2ccccc2)n1 |  | inconclusive [inhibitor, single point] |
| CC12CC3CC(C)(C1)CC(C(=O)NCc1ccco1)(C3)C2 |  | inconclusive [inhibitor, single point] |
| CC1=C(C(=O)Nc2cc(Cl)ccc2C)C(c2cccs2)n2ncnc2N1 (stereo not given) | inconclusive: -30.5% [inhibitor] |  |
| CCN(CC)C(=O)CSc1nnc(-c2cccc(OC)c2)o1 | inactive: -15.7% |  |
| CCOc1ccccc1/C=N\Nc1cnn(Cc2ccccc2)c(=O)c1Cl |  | inconclusive [inhibitor, single point] |
| N=c1c2c(n(Cc3ccc(Cl)c(Cl)c3)c3c1CCC3)CCCC2 |  | active: 2.59 µM |
| COc1cc(/C=N\NC(=O)c2sc(N)nc2C)cc(OC)c1OC |  | active: 13 µM |
| COc1ccc(NC(=O)/C(C#N)=C\c2ccc(-c3cc(C(=O)O)ccc3C)o2)cc1 | inactive: -19.5% |  |
| CC(c1ccco1)N(Cc1ccco1)C(=O)Nc1ccccc1 (stereo not given) | inactive: -29.4% |  |
| CC(C)Sc1snnc1-c1ccccc1 | inactive: -20.9% |  |
| O=S(=O)(NCc1ccc(F)cc1)c1cc(Br)ccc1Br |  | inconclusive [inhibitor, single point] |
| CCc1nc2nc(C)c(NS(=O)(=O)c3ccc(Cl)cc3)c(=O)n2[nH]1 | inactive: 4.04% |  |
| CCC(Cc1ccccc1)OC(=O)c1ccccc1C(=O)O (stereo not given) | inactive: -1.2% |  |
| O=C(C[n+]1ccccc1)N/N=C/c1ccccc1C(F)(F)F | inactive: 17.3% |  |

| SMILES | activity change, negative = growth inhibition | Potency |
| --- | --- | --- |
| COC(=O)c1ccccc1NC(=S)NC(=O)CC(C)C | inactive: -0.329% |  |
| Oc1ccc(-c2nccc(-c3ccc(Cl)cc3Cl)n2)cc1 |  | inconclusive [inhibitor, single point] |
| Cc1ccc(CNC(=O)Cc2ccc(-n3cccc3)cc2)cc1 |  | active: 0.82 µM |
| Cc1cc(C)nc(N/N=C/c2ccc3c(c2)OCCO3)n1 |  | inconclusive [inhibitor, single point] |
| CCC(=O)N1CCN(CCN=CC2=C(O)CC(c3ccc(OC)cc3)CC2=O)CC1 (stereo not given) | inactive: -3.54% |  |
| Cc1ccc(-c2csc(C(C)(O)c3cccc(F)c3)n2)cc1C (stereo not given) |  | inconclusive [inhibitor, single point] |
| COc1ccc(CCNC(=O)C(C)n2c(=O)cc(-c3ccccc3)c3c(C)nn(C)c32)cc1OC (stereo not given) |  | inconclusive [inhibitor, single point] |
| COCCn1c(SCC(=O)Nc2cccc(C(=O)OC)c2)nc2ccccc2c1=O |  | inconclusive [inhibitor, partial curve] |
| N#Cc1ccc(CSc2nnc(Cc3cccs3)n2Cc2ccco2)cc1 |  | inconclusive [inhibitor, single point] |
| Cc1ccn2c(=O)cc(C)nc2c1 | inactive: -0.402% |  |
| O=S(=O)(c1ccc(F)cc1)N1CCC(c2nc3ccccc3[nH]2)CC1 |  | inconclusive [inhibitor, single point] |
| CS(=O)(=O)N1CCC2(CCCN(Cc3cc(C(F)(F)F)cc(C(F)(F)F)c3)C2)CC1 |  | inconclusive [inhibitor, single point] |
| CCOCCCNC(=S)Nc1cc(C)cc(C)c1 | inactive: -6.1% |  |
| COc1ccc(-c2csc(C(O)c3ccc(F)c(OC)c3)n2)cc1 (stereo not given) |  | active: 14.6 µM |
| CCOC(=O)c1cnn(CCOC(=O)c2ccccc2)c1NC(=O)c1ccccc1 |  | inconclusive [inhibitor, single point] |
| CCOc1ccc(N(CC)C(=O)c2cc3c(s2)-c2ccccc2OC3)cc1 |  | inconclusive [inhibitor, single point] |
| O=C(CCSCCc1ccccn1)Nc1nccs1 | inactive: -24.1% |  |
| O=C(NCCc1cccs1)C1CC(c2ccccc2F)=NO1 (stereo not given) | inactive: -15.3% |  |
| O=C(Cn1nnc(-c2cccc(C(F)(F)F)c2)n1)NC(=O)NCc1ccco1 | inactive: -8.18% |  |
| COc1cc(Cl)c(C)cc1NC(=O)CC1SC(N2CCOCC2)=NC1=O (stereo not given) | inactive: 8.94% |  |
| CC(Oc1ccc2c(-c3ccccc3)cc(=O)oc2c1)C(=O)NCC(O)c1ccccc1 (stereo not given) |  | inconclusive [inhibitor, single point] |
| Cc1nn(-c2ccccc2)c(C)c1/C=N/n1cnnc1 | inactive: 1.59% |  |
| CC(=O)c1cccc(CN2CCN(Cc3ccc(F)cc3)C(CCO)C2)c1 (stereo not given) | inconclusive: -32% [inhibitor] |  |
| CCOC(=O)C(NC(C)=O)(NC(C)C)C(F)(F)F (stereo not given) | inactive: -12% |  |
| O=C(NC1CCCCC1)C(=O)c1c(-c2ccccc2)[nH]c2ccccc12 |  | inconclusive [inhibitor, single point] |

| SMILES | activity change, negative = growth inhibition | Potency |
| --- | --- | --- |
| COC(=O)[C@@]12C[C@@H](CC(=O)NCc3ccc(C)o3)C(=O)N(CCc3ccc(OC)c(OC)c3)C1=CCC(C)(C)C2 |  | active: 8.2 µM |
| CC1(C)CC2(CC(c3cccs3)c3cc(Cl)c(O)cc3O2)NC(=S)N1 (stereo not given) |  | active: 7.31 µM |
| O=c1cnn(-c2ccc(Cl)cc2Cl)c(-c2ccccc2)c1 |  | active: 23.1 µM |
| CC1CCC2(CC1)NC(=O)N(CC(=O)Nc1ccc3c(c1)OCO3)C2=O (stereo not given) |  | inconclusive [inhibitor, single point] |
| CCN(CC)CCNC(=O)CNC(=O)c1nn(-c2ccc(OC)cc2)c(=O)c2ccccc12 | inactive: 11.4% |  |
| Cc1ccc(-n2nc3c(c2NC(=O)c2ccc4c(c2)OCO4)CS(=O)C3)c(C)c1 (stereo not given) | inactive: -12.8% |  |
| Cc1ccc(C(=O)N2c3ccc(F)cc3CCC2C)o1 (stereo not given) |  | inconclusive [inhibitor, single point] |
| CSc1ccc(CN(C)C(=O)CNC(=O)c2sc3ccccc3c2Cl)cc1 |  | inconclusive [inhibitor, single point] |
| O=C(CC1NCCNC1=O)Nc1cccc([N+](=O)[O-])c1 (stereo not given) |  | inconclusive [inhibitor, single point] |
| CCC(=O)N1CCc2cc(CNC(=O)c3ccc(F)cc3)ccc21 | inactive: -24.1% |  |
| COc1ccc(CCC(=O)Nc2cc(S(=O)(=O)N3CCCCC3)ccc2N(C)C)cc1 |  | inconclusive [inhibitor, single point] |
| COc1cc2c(cc1OC)C(c1cc3ccc(C)cc3[nH]c1=O)N(C(=O)c1ccco1)CC2 (stereo not given) |  | inconclusive [inhibitor, partial curve, poor fit] |
| CCN1CCN(c2cc(C)c3cc(NC(=O)c4ccncc4)ccc3n2)CC1 |  | inconclusive [inhibitor, single point] |
| COc1cccc(N2CCN(C(=O)c3nn(C)c4c3CSc3ccc(C)cc3-4)CC2)c1 |  | inconclusive [inhibitor, single point] |
| Cc1cc(C)cc(NC(=O)CSc2nc3[nH]ncc3c(=O)[nH]2)c1 |  | inconclusive [inhibitor, partial curve] |
| COc1cc(/C=C/C(=O)OCC(=O)NC(=O)NC(C)C)ccc1OCC#N |  | inconclusive [inhibitor, single point] |
| Cc1ccc(SCc2nc(-c3ccc(C(=O)NCCc4ccc(Cl)cc4)cc3)oc2C)cc1 |  | inconclusive [inhibitor, full curve, poor fit] |
| CCOc1ccc2nc(N3CCOCC3)nc(C)c2c1 | inactive: -21.5% |  |
| Cc1nn2c(=O)cc(COC(=O)c3ccccc3NC(=O)COc3ccccc3C)nc2s1 | inactive: -1.12% |  |
| O=[N+]([O-])c1ccc(NC(=S)N2CCc3ccccc3C2)cc1 | inconclusive: -39.2% [inhibitor] |  |
| C[C@H](CO)N1C[C@H](C)[C@@H](CN(C)C(=O)Nc2ccc3c(c2)OCO3)Oc2c(NC(=O)Nc3ccccc3)cccc2C1=O |  | inconclusive [inhibitor, single point] |
| COc1cc(OC)c2c(=O)cc(-c3cccnc3)oc2c1 |  | inconclusive [inhibitor, partial curve] |
| CC(=O)NC12CC3CC(C1)CC(C(=O)N1CCN(S(=O)(=O)c4ccc([N+](=O)[O-])cc4)CC1)(C3)C2 | inactive: -11.6% |  |
| CCOC(=O)N1CCN(c2nc(SC)nc3sc4c(c23)CC(C)(C)OC4)CC1 |  | inconclusive [inhibitor, single point] |
| Cc1ccc(-c2nnc(Nc3ccccc3)c3ccccc23)cc1S(=O)(=O)NCC1CCCO1 (stereo not given) |  | active: 16.4 µM |
